Test results taken from PubChem BioAssay AID686979 (National Center for Advancing Translational Sciences (NCATS), 2013).
Among all 420,000 compounds or so, about 50,000 (12%) were called active. The shares of active, inactive and inconclusive entries below differ from those in the screen. Calls come from the whole dose curve; as a rule, active = well fitted inhibition curve with a large enough effect; inconclusive = small, poorly fitted or top-dose-only effect; inactive = flat fitted curve, though single readings scatter. No potency is given beside an inconclusive call; the fits are too rough.

assay: qHTS for Inhibitors of human tyrosyl-DNA phosphodiesterase 1 (TDP1): qHTS in cells in presence of CPT; details: chicken DT40 Tdp1-/-;hTDP1 cells + 20 nM CPT, ATP luminescence, 48 h; activity change, negative = growth inhibition: at 46.2 µM (top of the series) unless noted; note: nearly all actives have a fitted effect of over 55% in size
Method in brief: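 Chicken DT40 Tdp1-/- cells stably complemented with human TDP1 were seeded at 400 cells/well in medium containing 20 nM camptothecin, exposed to pin-transferred compounds, and grown at 37 °C for at least 48 hr. Viability was read as ATP luminescence.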
% is set by controls: 0 for no effect and ±100 for the full control effect; potency is the fitted concentration of half-maximal effect; tags give direction and shape of the fitted curve.

Q: Which “activity change, negative = growth inhibition” value does the source give for COc1cccc(NC(=O)c2cc3c(=O)n(Cc4cccnc4)ccc3nc2C)c1 here?
A: Its value is inactive: 3.5%.

Q: With CCOC(=O)N1CCN(C(=O)CSc2nnc3[nH]c(=O)c(C)c(C)n23)CC1 as the molecule, how does the “activity change, negative = growth inhibition” value read?
A: Its value is inactive: -0.384%.

Q: For CN1C=CC(=O)[C@@H](OC(=O)Nc2ccc(Br)cc2)[C@H]1c1ccccc1Br, which Potency is on record?
A: Its Potency is inconclusive [inhibitor, single point].

Q: For COc1ccc(CNC(=O)CN(C)Cc2ccc(C(C)(C)C)cc2)cc1, which Potency is on record?
A: The Potency was inconclusive [inhibitor, single point].

Q: Which “activity change, negative = growth inhibition” value does the source give for CC(=O)N/C(=N\c1nc(C)cc(C)n1)Nc1ccc(Cl)cc1Cl here?
A: The value was inactive: 21.6%.

Q: For COc1ccccc1N(CC(=O)NC1CCCCC1C)S(=O)(=O)c1cccs1 (stereo unspecified), which “activity change, negative = growth inhibition” value is on record?
A: The value was inactive: -15.7%.

Q: With Cc1ccc(S(=O)(=O)NCCC(=O)Nc2ccc(C)cc2C(=O)c2ccccc2)cc1 as the molecule, how does the Potency read?
A: Its Potency is inconclusive [inhibitor, partial curve].

Q: For COc1cc(CNC2CCCCCCC2)cc(Cl)c1OC, which Potency is on record?
A: The Potency was inconclusive [inhibitor, single point].

Q: For CCc1ccc(-c2cc(C)no2)cc1S(=O)(=O)Nc1ccc(Cl)cc1, which Potency is on record?
A: The Potency was inconclusive [inhibitor, single point].

Q: Which Potency does the source give for Cc1onc(-c2ccccc2Cl)c1C(=O)NCCn1c(C)cc2ccccc21 here?
A: Its Potency is inconclusive [inhibitor, single point].

Q: Which Potency does the source give for CN(CCO)c1ccc(-c2nn(C)c(=O)c3ccccc23)cc1[N+](=O)[O-] here?
A: Its Potency is inconclusive [inhibitor, partial curve].

Q: For CCN(CC(=O)Nc1ccccc1C(F)(F)F)C(=O)CSCC(=O)Nc1cc(C)on1, which “activity change, negative = growth inhibition” value is on record?
A: The value was inactive: 14.2%.

Q: For O=C(Nc1cccc(C(F)(F)F)c1)c1cccnc1NCCO, which “activity change, negative = growth inhibition” value is on record?
A: Its value is inactive: -7.08%.

Q: With CCOC(=O)C1=NN(C(=O)c2ccc(C)cc2)C(O)(c2ccc(Cl)cc2)C1 (stereo unspecified) as the molecule, how does the “activity change, negative = growth inhibition” value read?
A: The value was inactive: -6.16%.

Q: Which Potency does the source give for Cc1ccc(C(O)c2ncc(-c3ccccc3F)[nH]2)cc1F (stereo unspecified) here?
A: Its Potency is inconclusive [inhibitor, partial curve].

Q: With CC(C)CC(NC(=O)C1CCC(C)CC1)C(=O)Nc1ccccn1 (stereo unspecified) as the molecule, how does the Potency read?
A: Its Potency is inconclusive [inhibitor, single point].

Q: For CCOC(=O)c1c(C)[nH]c(CCC(=O)NCc2ccccc2C)c1C, which Potency is on record?
A: The Potency was inconclusive [inhibitor, single point].

Q: With Nc1nnc(SCC(=O)N2CCN(c3cccc(Cl)c3)CC2)n1-c1ccccc1 as the molecule, how does the Potency read?
A: Its Potency is inconclusive [inhibitor, partial curve].

Q: Which Potency does the source give for CCN1CCC(N(Cc2ccc3c(c2)OCO3)C(=O)Nc2ccccc2OC)CC1 here?
A: Its Potency is inconclusive [inhibitor, single point].

Q: For Cc1ccc(-c2nn3c(-c4ccccc4)nnc3o2)cc1, which Potency is on record?
A: Its Potency is inconclusive [inhibitor, single point].

Q: With Cc1ccc(N2CCN(C(CCc3ccccc3)C(=O)Nc3c(C)cccc3C)CC2)cc1 (stereo unspecified) as the molecule, how does the Potency read?
A: The Potency was inconclusive [inhibitor, single point].

Q: Which Potency does the source give for CCOC(=O)[C@]12CCC=C1N(Cc1ccco1)C(=O)[C@H](CC(=O)NCc1cccc(C(F)(F)F)c1)C2 here?
A: The Potency was inconclusive [inhibitor, single point].

Q: For COc1cccc(-c2c(C(=O)N/N=C(\C)c3ccc(Cl)s3)nnn2-c2nonc2N)c1, which “activity change, negative = growth inhibition” value is on record?
A: Its value is inactive: -19.1%.

Q: Which “activity change, negative = growth inhibition” value does the source give for CC(C)CCn1c(SCC(N)=O)nc2c1c(=O)n(C)c(=O)n2C here?
A: The value was inactive: -1.9%.

Q: For COC(=O)N1CCCCC1c1cc(C(=O)Nc2ccccc2Cl)no1 (stereo unspecified), which activity change, negative = growth inhibition is on record?
A: The activity change, negative = growth inhibition was inconclusive: -31.3% [inhibitor].

Q: For CN(C)c1ccc(NC(=O)CSC2=Nc3ccccc3C3=NC(CC(=O)NCc4ccccc4)C(=O)N23)cc1 (stereo unspecified), which “activity change, negative = growth inhibition” value is on record?
A: The value was inactive: -8.24%.

Q: For O=C(CSc1ncccn1)Nc1cccc2ccccc12, which activity change, negative = growth inhibition is on record?
A: Its activity change, negative = growth inhibition is inconclusive: -30.9% [inhibitor].

Q: For Cc1ccccc1-n1nc2c(c1NC(=O)c1ccc(Br)o1)CSC2, which “activity change, negative = growth inhibition” value is on record?
A: Its value is inactive: -7.8%.

Q: Which “activity change, negative = growth inhibition” value does the source give for CCOC(=O)C1CCCN(C(=O)c2cc(CN3C(=O)c4ccccc4C3=O)ccc2OC)C1 (stereo unspecified) here?
A: Its value is inactive: -23%.

Q: For CC1CN(C(=O)N2CCC(C(=O)NC3CCCCCC3)CC2)c2ccccc2O1 (stereo unspecified), which Potency is on record?
A: Its Potency is inconclusive [inhibitor, single point].

Q: Which “activity change, negative = growth inhibition” value does the source give for O=C(NCc1ccc(F)cc1)c1cc(S(=O)(=O)N2CCOCC2)ccc1F here?
A: The value was inactive: -2.07%.

Q: With CCOc1ccc(-c2cccc(NC(=O)COc3ccc(Cl)cc3)c2)nn1 as the molecule, how does the Potency read?
A: The Potency was inconclusive [inhibitor, single point].

Q: For COc1ccccc1C(OC(=O)c1cccs1)C(=O)NCc1ccco1 (stereo unspecified), which Potency is on record?
A: Its Potency is active: 18.4 µM.

Q: Which “activity change, negative = growth inhibition” value does the source give for N#Cc1c(NC(=O)C2CC(c3ccccc3Cl)=NO2)sc2c1CCC2 (stereo unspecified) here?
A: The value was inactive: 4.1%.

Q: For CCOc1ccc(-n2nnc3c(=O)n(CC(=O)Nc4cc(C)on4)cnc32)cc1, which Potency is on record?
A: Its Potency is inconclusive [inhibitor, single point].

Q: For CCCN1C(=O)c2[nH]nc(-c3ccc(F)cc3)c2C1c1ccccn1 (stereo unspecified), which Potency is on record?
A: The Potency was inconclusive [inhibitor, single point].

Q: With O=C(ONC(=O)C1CCCCC1C(=O)NOC(=O)c1ccccc1)c1ccccc1 (stereo unspecified) as the molecule, how does the Potency read?
A: The Potency was inconclusive [inhibitor, single point].

Q: For COc1ccc(C)cc1NC(=O)c1nn(-c2ccccc2)cc1OC, which Potency is on record?
A: The Potency was inconclusive [inhibitor, single point].

Q: Which Potency does the source give for CC1=NN(c2nc3ccccc3[nH]2)C(=O)C1Cc1ccccc1 (stereo unspecified) here?
A: The Potency was active: 1.03 µM.

Q: Which Potency does the source give for COc1ccccc1Nc1c2c(nc3ccccc13)CCC2 here?
A: The Potency was active: 18.4 µM.

Q: For O=C(Cn1cnc2ccccc21)Nc1ccc(SC(F)F)cc1, which Potency is on record?
A: Its Potency is active: 20.6 µM.

Q: For CCOC(=O)C1CCCN(C(=O)c2ccc3c(=O)n(Cc4ccccc4OC)c(=S)[nH]c3c2)C1 (stereo unspecified), which Potency is on record?
A: The Potency was inconclusive [inhibitor, single point].

Q: Which Potency does the source give for COc1cccc(C2CC(=O)N3CN(C4CCCCC4)CSC3=C2C#N)c1 (stereo unspecified) here?
A: Its Potency is inconclusive [inhibitor, single point].

Q: Which Potency does the source give for Cc1noc(C)c1CSCC(=O)Nc1cc(S(=O)(=O)N2CCOCC2)ccc1OC(C)C here?
A: The Potency was inconclusive [inhibitor, single point].

Q: Which “activity change, negative = growth inhibition” value does the source give for Cc1c(C)[n+](=O)c(-c2ccc(Br)cc2)c(C)n1[O-] here?
A: Its value is inactive: 2.26%.

Q: With CC(C)(C)n1nnnc1C(c1ccccc1)N1CCN(c2ccc(F)cc2)CC1 (stereo unspecified) as the molecule, how does the Potency read?
A: The Potency was inconclusive [inhibitor, single point].
